Out of some 50,000 compounds screened, about 800 (1.6%) showed an effect of 50% or more. Some of the results follow.
Target: Bcl-2-like protein 10 (Homo sapiens) (UniProt Q9HD36)
Assay: Phenotype converters, Bcl-B/TR3 peptide binding displacement, primary biochemical FP (AID 1240);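 further: 0% = Bcl-B with tracer peptide and DMSO and 100% = tracer peptide lacking Bcl-B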
Conditions: GST-Bcl-B / FITC-TR3 peptide fluorescence polarization; stronger effect = higher value; compound at 3.75 mg/L

Chain of UniProt Q9HD36 (Q9HD36 whole entry, looked up): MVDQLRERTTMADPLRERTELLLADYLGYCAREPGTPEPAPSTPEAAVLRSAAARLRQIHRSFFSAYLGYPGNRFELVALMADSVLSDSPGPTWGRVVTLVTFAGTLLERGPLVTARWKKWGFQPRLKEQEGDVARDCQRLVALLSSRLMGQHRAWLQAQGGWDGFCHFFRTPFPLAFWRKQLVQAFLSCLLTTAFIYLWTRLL

Row | SMILES | displacement
1 | COc1ccc(Br)cc1/C=C/C(=O)c1ccc(F)cc1 | -10.1%
2 | Cc1cc(Cl)ccc1OCC(=O)N(CC(C)C)CC(C)C | -7.2%
3 | COc1ccc(CCC(=O)Nc2ccc(Cl)c([N+](=O)[O-])c2)cc1 | 7.5%
4 | Cc1ccc(OCCNC(=O)Cc2cccc3ccccc23)cc1 | 9%
5 | Clc1cccc(Cl)c1SCCc1ccncc1 | 7.1%
6 | CCOc1ccc(N/C(=N/S(=O)(=O)c2ccccc2)c2ccccc2)cc1 | 14%
7 | COc1ccc(Cl)cc1NC(=O)C1=C(C)NC(=S)NC1c1ccccc1Cl (centres undefined) | 19%
8 | CC(C)Cc1cc(C(=O)O)c2ccccc2n1 | 12.6%
9 | Cc1ccc(S(=O)(=O)Nc2ccc(N3CCCCC3)cc2)cc1[N+](=O)[O-] | 12.8%
10 | CN1CC(CO)O/C1=C(C#N)\C=C1\Nc2ccccc2C1=O (centres undefined) | -112%
11 | Cc1ccccc1/[N+]([O-])=C/c1cccs1 | 0.1%
12 | O=C(c1ccc2c(c1)C(=O)N(c1ccncc1)C2=O)c1ccc2c(c1)C(=O)N(c1ccncc1)C2=O | -2.9%
13 | C=CCn1c(SCC(=O)NCc2ccco2)nc2sc3c(c2c1=O)CCC3 | 4.1%
14 | Cc1ccnc(NS(=O)(=O)c2ccc(NC(=O)c3cccc(Oc4ccccc4)c3)cc2)n1 | 12.3%
15 | COc1ccc(C(=O)NC(C(Cl)(Cl)Cl)S(=O)(=O)c2ccc(C)cc2)cc1OC (centres undefined) | 10.7%
16 | O=C(/C=C/c1ccccc1)NC(=S)Nc1cccc(NC(=O)c2cccc(Cl)c2)c1 | 5.1%
17 | O=C1/C(=C/c2cc([N+](=O)[O-])ccc2Cl)SC(=S)N1c1ccccc1 | 3.1%
18 | O=C1CC(N2CCN(c3ccc([N+](=O)[O-])cc3)CC2)C(=O)N1c1cccc(Cl)c1 (centres undefined) | -5.2%
19 | C#CCOc1ccc(/C=C2\C(=O)NC(=O)N(c3ccc(C)cc3)C2=O)cc1 | -40.5%
20 | O=C(Nc1ccc(Br)cc1)C1CCCC1 | -10.4%
21 | N=C1S/C(=C\c2ccc3c(c2)OCO3)C(=O)N1c1ccc(F)cc1 | 2.6%
22 | O=C1C=C(NNC(=O)c2ccc(Cl)cc2)CC(c2ccco2)C1 (centres undefined) | 26.4%

Row | SMILES | displacement
23 | O=S(=O)(Nc1ccc(Oc2ccccc2)cc1)c1ccc(F)cc1 | -11.5%
24 | COc1ccc(C(=O)Nc2ccc(OC(F)(F)F)cc2)cc1OC | 42.5%
25 | CCOc1ccccc1NC(=O)c1ccc(Cl)cc1Cl | -11%
26 | COc1ccc(OC(C)C(=O)Nc2ccc(C(=O)OC(C)C)cc2)cc1 (centres undefined) | 13.7%
27 | Cc1[nH]n(-c2ccccc2)c(=O)c1C(=O)c1ccccc1F | 9.2%
28 | CN1CCN(C(=O)c2nn3c(C(F)(F)F)cc(-c4ccco4)nc3c2Cl)CC1 | -6%
29 | N/C(=N\OC(=O)c1ccccc1F)c1cccnc1 | -13.8%
30 | COc1ccc(N(CC(=O)O)S(C)(=O)=O)cc1Cl | 9.9%
31 | N/C(=N\OC(=O)Cc1ccc(Cl)cc1)c1ccccc1 | 0.4%
32 | CCOC(=O)c1[nH]cnc1C(=O)NCc1ccccc1 | 11.4%
33 | COc1ccc(NC(=O)C(c2ccccc2)c2ccccc2)cc1OC | -7.4%
34 | CCOC(=O)c1ccc2[nH]c3c(c2c1)CCCCC3=O | -2.9%
35 | CC1(C)CC(=O)C2=C(C1)OC1=C(C(=O)CC(C)(C)C1)C2c1c(O)ccc2ccccc12 | -0.6%
36 | CCc1nn2c(C(F)(F)F)cc(=O)[nH]c2c1C | -7.1%
37 | COc1cccc(C(=O)NC(NC(=S)Nc2ccc(C)cc2)C(Cl)(Cl)Cl)c1 (centres undefined) | -5%
38 | Cc1ccc(NC(=O)CCOc2ccccc2)c(Br)c1 | 2.3%
39 | Cn1ncc([N+](=O)[O-])c1/C=C/N1CCOCC1 | 2.6%
40 | CC(C)=NNC(=O)C(C)Sc1ccccc1 (centres undefined) | 2.6%
41 | COc1ccccc1N1C(=O)/C(=C\c2ccc(Cl)cc2Cl)SC1=S | 6.5%
42 | CC(C)c1ccc(-c2nn(-c3ccccc3)cc2-c2nnc(N)o2)cc1 | 4.4%
43 | CC(=O)Nc1ccc(C(=O)NCc2ccco2)cc1 | 3.9%
44 | O=C1CC(N(CCc2ccccc2)C(=O)c2ccccc2)C(=O)N1c1ccccc1 (centres undefined) | -5.4%

Row | SMILES | displacement
45 | COC(=O)c1ccccc1NC(=O)CN(c1ccc(OC)c(Cl)c1)S(C)(=O)=O | -0.1%
46 | COc1ccc(/C=N/NC(=O)CCNc2n[nH]c(=O)[nH]c2=O)cc1 | -9.3%
47 | CN1CCc2c(sc3nc(SCC(=O)c4ccccc4)nc(N)c23)C1 | -5.3%
48 | COc1ccc(Cl)cc1NC(=O)COc1ccccc1C | -1.7%
49 | CCOC(=O)C1=C(C)N=c2s/c(=C\c3cccc(O)c3)c(=O)n2C1c1ccc(OC)cc1 (centres undefined) | 5.9%
50 | O=C(CCNc1ccc(F)cc1)c1ccc(Cl)c(Cl)c1 | -5%
51 | O=C1/C(=N\n2cnnc2)c2ccccc2N1Cc1ccccc1 | 1.9%
52 | CN(C)c1ccc(NC(=O)c2ccc(Cl)c([N+](=O)[O-])c2)cc1 | 9%
53 | COc1ccc(C(=O)NNS(=O)(=O)c2ccccc2)cc1 | 4.3%
54 | COc1ccc(Cl)cc1NC(=O)COc1ccc(Cl)cc1Br | -8.7%
55 | Cc1ccc2c(c1)c1ccccc1n2COCc1ccccc1 | -6.1%
56 | O=C(Nc1ccccn1)C1CC(=O)N(c2ccc(Br)cc2)C1 (centres undefined) | 4.7%
57 | COc1cc([N+](=O)[O-])ccc1-c1ccc(/C=C2/C(C)=C(C#N)c3nc(N)c(C#N)c(C)c32)o1 | -4.8%
58 | COc1cccc(/C=C2\C(=O)NN(c3ccccc3)C2=O)c1O | 15.7%
59 | NNC(=O)CSc1nc2ccccc2n1Cc1ccccc1 | -9.6%
60 | COc1cc(-c2nc(-c3ccccc3)c(-c3ccc([N+](=O)[O-])cc3)[nH]2)cc(OC)c1O | -6.7%
61 | Cc1cc(C)n(C(=O)c2cccc(Br)c2)n1 | -8.5%
62 | Cc1ccc(C(=O)Nc2ccc3nn(-c4ccc(F)cc4)nc3c2)cc1[N+](=O)[O-] | -2.9%
63 | O=C(Nc1ccc(O)c(-c2nc3ccccc3s2)c1)c1cc2ccccc2o1 | 19.6%
64 | CCN(CC)S(=O)(=O)c1ccc(Cl)c(C(=O)Nc2sc3c(c2C#N)CCCC3)c1 | -11.3%
65 | O=C1c2cccc3cccc(c23)C(=O)N1CCSc1nc2sc3c(c2c(=O)[nH]1)CCCC3 | -1.9%
66 | COc1ccc(OC)c(/C=C2\SC(N3CCCC3)=NC2=O)c1 | -16.2%

Row | SMILES | displacement
67 | CCCC(=O)Nc1ccc(NC(=O)c2ccc(Cl)cc2Cl)cc1 | -3.3%
68 | CCOC(=O)c1ccc(N2NC(=O)/C(=C/c3cc(Cl)cc(Br)c3O)C2=O)cc1 | -10.1%
69 | CC(=O)c1cccc(NC(=O)COc2ccccc2C(C)(C)C)c1 | 6%
70 | COc1ccc(/C=N/N(C)c2cc(C)nc(-c3ccccc3O)n2)cc1 | -6.9%
71 | COc1ccc(OCC(=O)Nc2ccc3oc(-c4ccc(Cl)cc4Cl)nc3c2)cc1 | -9.1%
72 | CSC(N)=NC(=NS(=O)(=O)c1ccccc1)c1ccccc1 | 3.9%
73 | O=C(N/N=C(/C=N/O)c1ccccc1)c1cccc(Br)c1 | 1.4%
74 | Cc1ccc(N2CC(C(=O)Nc3cccc(Cl)c3)CC2=O)cc1 (centres undefined) | -7.6%
75 | COCCCNC(=O)CN(c1cccc(Cl)c1)S(C)(=O)=O | -2.4%
76 | COc1ccc(N(CC(=O)NCc2ccccc2OC)S(=O)(=O)c2ccccc2)cc1Cl | 3.2%
77 | CCOc1cc(OCC)cc(C(=O)Nc2cccc(NC(=O)c3ccccc3C)c2)c1 | 9%
78 | CCc1ccc(N2CC(C(=O)Nc3cccc(C)c3C)CC2=O)cc1 (centres undefined) | 14.8%
79 | COc1ccc2c(c1OC)C(=O)N(c1ccc(C(C)=O)cc1)C2=O | -14.2%
80 | CCOc1ccc(N2C(=O)NC(=O)/C(=C/c3cc(Br)c(OCC)c(OC)c3)C2=O)cc1 | -6.7%
81 | CC1=NN(c2ccccc2)C(=O)C1/C=C1\C(=O)NC(=S)N(c2ccc(F)cc2)C1=O (centres undefined) | 2.4%
82 | O=C(CCCOc1ccccc1)Nc1ccc(S(=O)(=O)Nc2nccs2)cc1 | 0.6%
83 | Cc1ccc(Nc2cc(C)c(O)c(C)c2)cc1 | 5.4%
84 | CCOC(=O)C(C(=O)OCC)C(C(=O)OCC)(C(=O)OCC)C(C(=O)OCC)C(=O)OCC | 2.1%
85 | O=C(c1ccccc1)N1CCN(CCCc2ccccc2)CC1 | -9.4%
86 | N#Cc1c(-c2ccco2)cc(-c2ccccc2)[nH]c1=S | 11.1%
87 | CCOc1cc(C=NNC(=S)NC2CCCCC2)ccc1O | -13.2%
88 | CCOC(=O)c1ccc(NC(=S)NC(=O)/C=C/c2ccccc2)cc1 | 2.1%

Row | SMILES | displacement
89 | CCCCOc1ccc(N2C(=O)C3CC(C)=C(C)CC3C2=O)cc1 (centres undefined) | -0.7%
90 | CCN(CC)C(=S)S/C=C/C(=O)c1ccccc1 | -9.8%
91 | CC1=C(C(=O)OCCOc2ccccc2)C(c2cccs2)C2=C(CCCC2=O)N1 (centres undefined) | -10.1%
92 | CC(=O)Nc1ccc(C(=O)Nc2ccc(Br)cc2F)cc1 | 15.4%
93 | CS(=O)(=O)N(CC(=O)Nc1ccc(Oc2ccccc2)cc1)c1cccc(Cl)c1 | 2.4%
94 | COc1ccc(N/N=C(/C#N)C(=N)N2CCCCCC2)cc1 | 0.3%
95 | CN1/C(=C/C(=O)Nc2ccccc2)c2ccccc2CC12CCCCC2 | 5%
96 | CN(/N=C/c1cccc(Oc2ccccc2)c1)c1ccccc1 | 12.6%
97 | C/C(=C\C(=O)c1ccncc1)Nc1ccccc1O | 13.1%
98 | COc1ccc(NS(=O)(=O)c2ccc(OC)c(Br)c2)c(OC)c1 | 7.6%
99 | CC1=NN(c2ccc(S(N)(=O)=O)cc2)C(=O)/C1=C\c1cccs1 | -1.4%
100 | O=C(Nc1ccc(S(=O)(=O)Nc2nccs2)cc1)c1cccc(F)c1 | 0.4%
101 | COc1ccccc1NC(=O)C1=C(C)NC(=S)NC1c1ccc(C)cc1 (centres undefined) | 6.8%
102 | COC(=O)CNC(c1ccccc1)c1cc(Br)ccc1NC(=O)CN1CCOCC1 (centres undefined) | -12.7%
103 | COc1ccc(/C=C2\SC(=S)N(CC(=O)OCCN(C)C)C2=O)cc1 | 17.8%
104 | COc1cccc(C2NC(=S)NC(C)=C2C(=O)Nc2cccc(C)c2)c1OC (centres undefined) | 3.9%
105 | COC(=O)c1sc(NC(=O)c2ccccc2OC)c(C(=O)OC)c1C | -1.5%
106 | O=C(N=Nc1c(O)[nH]c2ccc(Br)cc12)c1cccnc1 | 2%
107 | COc1ccc(N(CC(=O)N/N=C/c2cccs2)S(=O)(=O)c2ccc(OC)c(OC)c2)cc1 | -6.3%
108 | CC(C)NC(=O)c1ccc(C(C)C)cc1 | 2.3%
109 | COc1cccc(/C=N/NC(=O)C(=O)Nc2cccc(OC)c2)c1 | 5.7%

From PubChem BioAssay AID1240 (Sanford-Burnham Center for Chemical Genomics, 2008)
